# From the supplement of paper PMC8728848
# Some of the results follow.
# B1: AAL (Aleuria aurantia) (protein)
# chain: MPTEFLYTSKIAAISWAATGGRQQRVYFQDLNGKIREAQRGGDNPWTGGSSQNVIGEAKLFSPLAAVTWKSAQGIQIRVYCVNKDNILSEFVYDGSKWITGQLGSVGVKVGSNSKLAALQWGGSESAPPNIRVYYQKSNGSGSSIHEYVWSGKWTAGASFGSTVPGTGIGATAIGPGRLRIYYQATDNKIREHCWDSNSWYVGGFSASASAGVSIAAISWGSTPQIRVYWQKGREELYEAAYGGSWNTPGQIKDASRPTPSLPDTFIAANSSGNIDISVFFQASGVSLQQWQWISGKGWSIGAVVPTGTPAGW
# Experiments:
# Experiment in all cases: glycan array binding signal (z-score within array); higher = stronger binding
# Conditions in all cases: glycan notation: IUPAC condensed, linker removed; mutation: N224Q
# [1] = biological target: Gal(b1-4)GlcNAc(b1-6)Gal(b1-4)GlcNAc
# Procedure, shortened: (§1)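 The Consortium for Functional Glycomics database supplied 3228 glycan arrays, of which those lacking an available protein sequence were dropped. The binding signal, a within-array Z-score, was averaged across arrays of the same protein sequence and across linkers. Negative scores can be read as non-binding.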
# [2] = biological target: Gal(b1-4)GlcNAc(b1-6)GalNAc
# Procedure, shortened: as §1
# [3] = biological target: Gal(b1-4)GlcNAc(b1-6)[Gal(b1-3)]GalNAc
# Procedure, shortened: as §1
# [4] = biological target: Gal(b1-4)GlcNAc(b1-6)[Gal(b1-4)GlcNAc(b1-3)]GalNAc
# Procedure, shortened: as §1
# Gal(b1-4)GlcNAc6P = biological target: Gal(b1-4)GlcNAc6P
# Procedure, shortened: as §1
# Gal(b1-6)Gal = biological target: Gal(b1-6)Gal
# Procedure, shortened: as §1
# Gal3S(b1-3)GalNAc = biological target: Gal3S(b1-3)GalNAc
# Procedure, shortened: as §1
# Gal3S(b1-3)GlcNAc = biological target: Gal3S(b1-3)GlcNAc
# Procedure, shortened: as §1
# [5] = biological target: Gal3S(b1-3)[Fuc(a1-4)]GlcNAc
# Procedure, shortened: as §1
# Gal3S(b1-4)Glc = biological target: Gal3S(b1-4)Glc
# Procedure, shortened: as §1
# Gal3S(b1-4)Glc6S = biological target: Gal3S(b1-4)Glc6S
# Procedure, shortened: as §1
# Gal3S(b1-4)GlcNAc = biological target: Gal3S(b1-4)GlcNAc
# Procedure, shortened: as §1
# [6] = biological target: Gal3S(b1-4)[Fuc(a1-3)]Glc6S
# Procedure, shortened: as §1
# [7] = biological target: Gal3S(b1-4)[Fuc(a1-3)]GlcNAc
# Procedure, shortened: as §1
# [8] = biological target: Gal3S(b1-4)[Fuc(a1-3)]GlcNAc6S
# Procedure, shortened: as §1
# Gal3S4S(b1-4)GlcNAc = biological target: Gal3S4S(b1-4)GlcNAc
# Procedure, shortened: as §1
# Gal3S6S(b1-4)GlcNAc = biological target: Gal3S6S(b1-4)GlcNAc
# Procedure, shortened: as §1
# Gal3S6S(b1-4)GlcNAc6S = biological target: Gal3S6S(b1-4)GlcNAc6S
# Procedure, shortened: as §1
# Gal4S(b1-4)GlcNAc = biological target: Gal4S(b1-4)GlcNAc
# Procedure, shortened: as §1
# Gal4S6S(b1-4)GlcNAc = biological target: Gal4S6S(b1-4)GlcNAc
# Procedure, shortened: as §1
# Gal6P(b1-4)GlcNAc = biological target: Gal6P(b1-4)GlcNAc
# Procedure, shortened: as §1
# Gal6S(b1-3)GlcNAc = biological target: Gal6S(b1-3)GlcNAc
# Procedure, shortened: as §1
# Gal6S(b1-3)GlcNAc6S = biological target: Gal6S(b1-3)GlcNAc6S
# Procedure, shortened: as §1
# Gal6S(b1-4)Glc = biological target: Gal6S(b1-4)Glc
# Procedure, shortened: as §1
# Gal6S(b1-4)Glc6S = biological target: Gal6S(b1-4)Glc6S
# Procedure, shortened: as §1
# Gal6S(b1-4)GlcNAc = biological target: Gal6S(b1-4)GlcNAc
# Procedure, shortened: as §1
# Gal6S(b1-4)GlcNAc6S = biological target: Gal6S(b1-4)GlcNAc6S
# Procedure, shortened: as §1
# GalNAc(a1-3)Gal = biological target: GalNAc(a1-3)Gal
# Procedure, shortened: as §1
# GalNAc(a1-3)GalNAc = biological target: GalNAc(a1-3)GalNAc
# Procedure, shortened: as §1
# [9] = biological target: GalNAc(a1-3)GalNAc(b1-3)Gal(a1-4)Gal(b1-4)Glc
# Procedure, shortened: as §1
# [10] = biological target: GalNAc(a1-3)GalNAc(b1-3)Gal(a1-4)Gal(b1-4)GlcNAc
# Procedure, shortened: as §1
# GalNAc(b1-3)Gal = biological target: GalNAc(b1-3)Gal
# Procedure, shortened: as §1
# [11] = biological target: GalNAc(b1-3)Gal(a1-4)Gal(b1-4)GlcNAc
# Procedure, shortened: as §1
# [12] = biological target: GalNAc(b1-3)Gal(a1-4)Gal(b1-4)GlcNAc(b1-3)Gal(b1-4)Glc
# Procedure, shortened: as §1
# [13] = biological target: GalNAc(b1-3)Gal(a1-6)Gal(b1-4)Glc
# Procedure, shortened: as §1
# GalNAc(b1-3)GalNAc = biological target: GalNAc(b1-3)GalNAc
# Procedure, shortened: as §1
# GalNAc(b1-3)GlcNAc = biological target: GalNAc(b1-3)GlcNAc
# Procedure, shortened: as §1
# GalNAc(b1-4)Gal(b1-4)Glc = biological target: GalNAc(b1-4)Gal(b1-4)Glc
# Procedure, shortened: as §1
binder,measurement,setting,value
B1,glycan array binding signal (z-score),[1],-0.317
same,glycan array binding signal (z-score),[2],-0.317
same,glycan array binding signal (z-score),[3],-0.301
same,glycan array binding signal (z-score),[4],-0.316
same,glycan array binding signal (z-score),Gal(b1-4)GlcNAc6P,-0.312
same,glycan array binding signal (z-score),Gal(b1-6)Gal,-0.31
same,glycan array binding signal (z-score),Gal3S(b1-3)GalNAc,-0.332
same,glycan array binding signal (z-score),Gal3S(b1-3)GlcNAc,-0.353
same,glycan array binding signal (z-score),[5],0.764
same,glycan array binding signal (z-score),Gal3S(b1-4)Glc,-0.321
same,glycan array binding signal (z-score),Gal3S(b1-4)Glc6S,-0.32
same,glycan array binding signal (z-score),Gal3S(b1-4)GlcNAc,-0.328
same,glycan array binding signal (z-score),[6],0.201
same,glycan array binding signal (z-score),[7],2.34
same,glycan array binding signal (z-score),[8],-0.326
same,glycan array binding signal (z-score),Gal3S4S(b1-4)GlcNAc,-0.328
same,glycan array binding signal (z-score),Gal3S6S(b1-4)GlcNAc,-0.327
same,glycan array binding signal (z-score),Gal3S6S(b1-4)GlcNAc6S,-0.328
same,glycan array binding signal (z-score),Gal4S(b1-4)GlcNAc,-0.324
same,glycan array binding signal (z-score),Gal4S6S(b1-4)GlcNAc,-0.327
same,glycan array binding signal (z-score),Gal6P(b1-4)GlcNAc,-0.293
same,glycan array binding signal (z-score),Gal6S(b1-3)GlcNAc,-0.328
same,glycan array binding signal (z-score),Gal6S(b1-3)GlcNAc6S,-0.323
same,glycan array binding signal (z-score),Gal6S(b1-4)Glc,-0.322
same,glycan array binding signal (z-score),Gal6S(b1-4)Glc6S,-0.323
same,glycan array binding signal (z-score),Gal6S(b1-4)GlcNAc,-0.324
same,glycan array binding signal (z-score),Gal6S(b1-4)GlcNAc6S,-0.331
same,glycan array binding signal (z-score),GalNAc(a1-3)Gal,-0.325
same,glycan array binding signal (z-score),GalNAc(a1-3)GalNAc,-0.322
same,glycan array binding signal (z-score),[9],-0.319
same,glycan array binding signal (z-score),[10],-0.321
same,glycan array binding signal (z-score),GalNAc(b1-3)Gal,-0.333
same,glycan array binding signal (z-score),[11],-0.307
same,glycan array binding signal (z-score),[12],-0.317
same,glycan array binding signal (z-score),[13],-0.315
same,glycan array binding signal (z-score),GalNAc(b1-3)GalNAc,-0.323
same,glycan array binding signal (z-score),GalNAc(b1-3)GlcNAc,-0.302
same,glycan array binding signal (z-score),GalNAc(b1-4)Gal(b1-4)Glc,-0.305
